Laboratory results from PubChem BioAssay AID434955 (Southern Research Specialized Biocontainment Screening …, 2010).
The list shows a part of the results. Further columns of the screen follow, without active or inactive calls. Most of these compounds were active or inconclusive in the main read-out, so they are no random draw.

Assay: beta-lactam sensitization of Mtb H37Rv, H37Rv (AID 434955);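 further: growth measured after seven days incubation then overnight dye step; 0% = bacteria only wells and 100% = bacteria with antibiotic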
Details: M. tuberculosis H37Rv growth with meropenem, percent inhibition; measured here: primary screen without meropenem; at 25 µM

Structure (SMILES) | inhibition [%]
CCOC(=O)CNC(=O)C1c2ccccc2C(=O)N(c2ccc(OC)cc2)C1c1ccc(OC)cc1 (stereo unspecified) | 4.46
C=CCc1cccc(/C=N/NC(=O)C[n+]2ccccc2)c1O | -4.59
Nc1nonc1C(=O)NCCNCc1cc(Br)ccc1OCc1ccc(F)cc1 | -7.21
O=C(CCS(=O)(=O)c1ccccc1)NCc1ccccc1 | -5.08
Cc1c(N2C(=O)CS/C2=N\N=C\c2ccc(Cl)cc2)c(=O)n(-c2ccccc2)n1C | -1.56
CCO[C@@H]1OC(C(=O)NCc2nc3ccccc3[nH]2)=C[C@H](c2cn(C(C)=O)c3ccccc23)[C@H]1CCCO | 3.29
Cc1ccc(/C=C2/SC(=S)N(CCC(=O)NCCCN3CCOCC3)C2=O)cc1 | 3.08
Cn1c(SCC(=O)c2c(N)n(C)c(=O)n(C)c2=O)nnc1-c1ccc(F)cc1 | -3.14
Cc1cccc(OCC(=O)Nc2nonc2NC(=O)COc2cccc(C)c2)c1 | 6.78
CC(C)[C@H](NC(=O)OCc1ccccc1)C(=O)OCc1cc(=O)oc2cc(O)ccc12 | 5.09
CCn1ncc(Cl)c1C(=O)Nc1ccc2c(c1)CCC2 | 9.86
CN(Cc1nccn1C)C(=O)CC1C(=O)NCCN1Cc1ccc(F)cc1Cl (stereo unspecified) | -19.6
CC1CCN(C(=O)Cn2cc3c(n2)CCCC3)CC1 | 5.89
CCCc1cc(C(=O)Nc2nccs2)cs1 | 85
CCN(C(=O)C(C)N1C(=O)/C(=C/c2cccs2)SC1=S)C1CCS(=O)(=O)C1 (stereo unspecified) | -6.97
O=C(CCc1c[nH]c2ccccc12)Nc1ncccc1O | -4.7
O=C(COC(=O)/C=C/c1cccc(Cl)c1)NCCc1ccc(Cl)cc1Cl | -1.67
COc1ccc(C(=O)NC2CC2)cc1OC1CCN(Cc2ccc(Cl)cc2)CC1 | -1.52
Fc1ccc(C2CCNCC2COc2ccc3c(c2)OCO3)cc1 (stereo unspecified) | 2.97
Cc1ccc(C(=O)NCCn2c(N)c(C#N)c3nc4ccccc4nc32)cc1 | 4.12
CCC(C)NC(=O)c1cn(CC)c2ccc(S(=O)(=O)N(C)C)cc2c1=O (stereo unspecified) | 0.82
Cc1onc(NC(=O)NC(=O)c2ccccc2F)c1Br | -4.49

Structure (SMILES) | inhibition [%]
Cc1ccc(CN(CC(=O)NCc2ccccn2)S(=O)(=O)c2ccccc2)cc1 | 20
CCCCN(Cc1cc2cc(OC)ccc2[nH]c1=O)S(=O)(=O)c1ccc(C)cc1 | -2.13
COc1ccc2oc(C(=O)OCC(=O)N3CCC(C)CC3)c(C)c2c1 | 4.58
Cc1noc(C)c1S(=O)(=O)N1Cc2ccccc2CC1C(=O)N(C)C (stereo unspecified) | -6.27
Cc1cc(C)c2nc(N3CCC(C(=O)NCC4CCCO4)CC3)sc2c1 (stereo unspecified) | 6.48
CCNC(=O)COC(=O)C1C(C(=O)OCC)=C(C)NC(C)=C1C(=O)OCC | 0.2
CN(Cc1cnn(C)c1)C(=O)C1CCC(=O)N(C2CCCCCC2)C1 (stereo unspecified) | 1.01
COc1cccc(-c2nc3n(n2)C(c2ccccc2Cl)C(C(N)=O)=C(C)N3)c1 (stereo unspecified) | -7.98
N#CCCN1CCN(S(=O)(=O)c2ccc(S(=O)(=O)N3CCCCCC3)cc2)CC1 | 0.31
CCOC(=O)CNC(=O)/C(=C\c1ccc(F)cc1)NC(=O)c1ccccc1 | -4.73
COC(=O)C(OC(=O)c1ccc(OC)cc1)C(=O)OC | -2.35
COc1cccc(C2Nc3c(F)cc(Br)cc3C3C=CCC32)c1OC (stereo unspecified) | -11.4
CCN(CC)S(=O)(=O)c1csc(C(=O)NC2CCCCC2)c1 | 0.88
Cc1ccc2c(c1)N(CC(=O)NCCC1=CCCCC1)C(=O)c1cccnc1O2 | -5.91
CCOc1cccc2sc(N(CCN(C)C)C(=O)c3ccc4ccccc4c3)nc12 | 4.92
CCn1c(SCc2nc(-c3cccs3)no2)nnc1-c1c[nH]c2ccccc12 | 1.66
CC(C)OCCCn1c(=S)[nH]c2cc3c(cc2c1=O)OCO3 | -2.43
Cc1sc2ncnc(SCC(=O)N3CCCC(C(F)(F)F)C3)c2c1C (stereo unspecified) | 4.98
CC(C(=O)Nc1sc2c(c1C(=O)NCc1ccco1)CCCC2)N1C(=O)c2ccccc2C1=O (stereo unspecified) | 6.46
CN(Cc1ccon1)C(=O)CC1C(=O)NCCN1Cc1ccc(F)c(F)c1 (stereo unspecified) | -1.35
COc1ccc(NC(=O)c2oc3ccccc3c2NC(=O)C2CC2)c(OC)c1 | 3.68
Cc1nnc(NC(=O)c2sc3nc(-c4cccs4)cc(C(F)(F)F)c3c2N)s1 | 9.17

Structure (SMILES) | inhibition [%]
O=C(CCC(=O)N1CCOCC1)NCCc1ccc(Cl)cc1Cl | 0.21
COc1cccc(C2CC(c3ccc(Cl)cc3)n3nc(N)nc3N2)c1 (stereo unspecified) | -4.85
CCN1CCCC1CNC(=O)Cn1nc(C)n2nc(-c3ccccc3)cc2c1=O (stereo unspecified) | -0.54
Cc1cc(=O)[nH]c2c(C)c(Cl)ccc12 | -13
COc1ccc(C(=O)N2CCC(n3nccc3NC(=O)C3CCOC3)CC2)cc1 (stereo unspecified) | 1.83
CNC(=O)c1c(NC(=O)C2=COCCO2)sc2c1CCC(C)C2 (stereo unspecified) | 16.8
CCN(CC)S(=O)(=O)c1ccc(N/N=C(\C)c2ccc(OC)cc2O)nc1 | 11.6
CCCn1cc(S(=O)(=O)c2ccc(C)cc2)c(=O)c2cc(OC)ccc21 | 1.5
CCOc1ccc(-c2cc(C(=O)N3CCCC3)c3ccccc3n2)cc1 | 7.74
CC1(C)Cc2c(C#N)c(SCc3ccccc3)nc(N3CCOCC3)c2CO1 | 21.1
Cc1ncsc1CCC(=O)N1CCCC(Nc2ccc(F)c(F)c2)C1 (stereo unspecified) | -0.04
Cc1c(C(=O)N2CCN(Cc3ccccc3)CC2)oc2c1C(=O)CCC2 | 1.2
COc1ccc(NC(=O)c2cc3c(s2)CCC3)cc1S(=O)(=O)N1CCOCC1 | 3.05
COc1ccc(OCc2cc(C(=O)NCC(C)Oc3cccnc3)no2)c(Cl)c1 (stereo unspecified) | 17.6
Cc1ccc(C)c(OCc2cc(C(=O)NC3CCOC(C)(C)C3)no2)c1 (stereo unspecified) | -3.07
Cc1c(C(=O)NCc2ccccn2)sc2nc(-c3ccc(F)cc3)cn12 | -9.75
CCOC(=O)Cn1c(=NC(=O)C2CC2)sc2c(C)cc(C)cc21 | 7.17
COc1ccc(OC(=O)c2cccc([N+](=O)[O-])c2)c(C(=O)/C=C/c2cccs2)c1 | 29.4
Cc1sc2ncnc(N3CCC(C(=O)NNC(=O)c4ccccc4Cl)CC3)c2c1C | -8.75
O=C(COC(=O)c1ccc([N+](=O)[O-])s1)NCc1ccc(F)cc1 | 15.1
Cc1ccc(Oc2nc(CN3CCOCC3)nc3sc4c(c23)CCC(C)C4)cc1C (stereo unspecified) | 99.4
C=CCN=c1scc(-c2ccc(F)cc2)n1/N=C/c1ccccn1 | 34.9
